The values below are quoted from earlier work in patent US20260217837A1, “FGFR3 BINDING MOLECULES AND METHODS OF USE THEREOF” (Regeneron Pharmaceuticals, Inc., priority 2023, published 2026).

Residue numbers refer to the chain shown, from its start.

The labels stand for the following.
B1: PRO-021: anti-FGFR3 IIIc antibody of WO 2006/048877 A2; SEQ ID NO: 32/33 (antibody, V domains shown)
VH: QVQLVQSGAEVKKPGSSVKVSCKASGGTFSSYAISWVRQAPGQGLEWMGGIIPIFGTANYAQKFQGRVTITADESTSTAYMELSSLRSEDTAVYYCARDNWFKPFSDVWGQGTLVTVSS
VL: DIVMTQSPDSLAVSLGERATINCRSSQSVLYSSNNKNYLAWYQQKPGQPPKLLIYWASTRESGVPDRFSGSGSGTDFTLTISSLQAEDVAVYYCQQYDSIPYTFGQGTKVEIKRT
B2: MS-Pro-24: anti-FGFR3 Ig-like domain 3 antibody of WO 2002/102972 A2; SEQ ID NO: 34/35 (antibody, V domains shown)
VH: B1 VH with D99V, W101H, F102W, K103T, P104Y, F105T, S106F, V108Y
VL: DIVLTQSPATLSLSPGERATLSCRASQSVSSSYLAWYQQKPGQAPRLLIYGASSRATGVPARFSGSGSGTDFTLTISSLEPEDFATYYCQQSNYPDTFGQGTKVEIKRT
B3: MS-Pro-21: anti-FGFR3 Ig-like domain 3 antibody of WO 2002/102972 A2; SEQ ID NO: 32/33 (antibody, V domains shown)
VH: B1 VH
VL: B1 VL
B4: PRO-024: anti-FGFR3 IIIc antibody of WO 2006/048877 A2; SEQ ID NO: 34/48 (antibody, V domains shown)
VH: B1 VH with D99V, W101H, F102W, K103T, P104Y, F105T, S106F, V108Y
VL: DIVLTQSPATLSLSPGERATLSCRASQSVSSSYLAWYQQKPGQAPRLLIYGASSRATGVPARFSGSGSGTDFTLTISSLEPEDFATYYCQQMSNYPDTFGQGTKVEIKRT

One series deals with FGFR3. To be noted: Exemplary FGFR3 D3 binding sequences; antibodies of cited PCT publications; cited from earlier work.
Take B1: the Activity result is “Antagonistic”.

On to B2, for which the Activity entry is “Antagonistic”.

In the case of B3, the Activity result is given as “Antagonistic”.

Regarding B4, the Activity entry is recorded as “Antagonistic”.

Still in this series, the particulars now being: Table T-1, exemplary FGFR3 parental antibodies of cited publications; cited from earlier work.
Take B1: the Activity entry is reported as “Antagonistic”.

For B2, the Activity entry is given as “Antagonistic”.

For B3, the Activity entry is “Antagonistic”.

On to B4, for which the Activity entry is on record as “Antagonistic”.
